The source of these data is PubChem BioAssay (NCI).

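Exposure lasted 48 hours, with cells grown in 96-well plates and compounds tested at five concentrations. GI50 = concentration required for 50% inhibition of growth. The concentration for full growth arrest is given as TGI.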 The source made the active and inactive calls.

This experiment concerns MDA-MB-468 breast. The experiment can be described thus: inhibition of tumour cell growth, NCI panel, 48 h.

Consider `O=C(CCCN1CCC2(CC1)C(=O)NCN2c1ccccc1)c1ccc(F)cc1`, for which the GI50 result is “inactive” and the TGI stood at 72.3 µM.
